# Source: patent US10017827B2, “Herbicide-resistant sunflower plants with multiple herbicide resistant alleles of AHASL1 and methods of use” (BASF AGROCHEMICAL PRODUCTS B.V., priority 2007, dated 2018)
# Tested on: sunflower hybrid H2 (L3 × L4, A122T)
# Test: Greenhouse whole-plant response to imazapyr
# Format: in vivo
# Conditions: 14 DAT
compound,measurement,setting,value
CC(C)C1(C)N=C(c2ncccc2C(=O)O)NC1=O (stereo not drawn) [imazapyr],Phytotoxicity Index (0-9),0.5x (40 g ai/ha),0.5
same,"biomass accumulation, % of untreated",0.5x (40 g ai/ha),100%
same,Phytotoxicity Index (0-9),1x (80 g ai/ha),0.5
same,Phytotoxicity Index (0-9),2x (160 g ai/ha),0.5
same,Phytotoxicity Index (0-9),3x (240 g ai/ha),0.5
same,Phytotoxicity Index (0-9),4x (320 g ai/ha),0.5
same,Phytotoxicity Index (0-9),5x (400 g ai/ha),0.5
same,"plant height, % of untreated",5x (400 g ai/ha),87.0%
same,Phytotoxicity Index (0-9),6x (480 g ai/ha),0.5
